Data published in patent publication US20090143279A1 (priority 2007, published 2009).

system: cellular ATP levels; conditions: not given

Question: How did the “cellular ATP levels, combination of statin and β-blocker” value turn out when `COCCc1ccc(OCC(O)CNC(C)C)cc1` (centres unmarked) [metoprolol, reference compound] was run?
Answer: neither atenolol nor metoprolol showed an effect

Question: With `CN[C@@H](Cc1c[nH]c2ccccc12)C(=O)O` [abrine] as the compound, how does the “ATP (composite Z-score)” value read?
Answer: 0.140

Question: With `O=C(O)c1cc([N+](=O)[O-])ccc1NCCCc1ccccc1` [5-nitro-2-phenylpropylaminobenzoic acid] as the compound, how does the “ATP (composite Z-score vs DMSO)” value read?
Answer: 0.261

Question: Which “cellular ATP levels” value does the source give for `CC[C@H](C)C(=O)O[C@H]1C[C@@H](C)C=C2C=C[C@H](C)[C@H](CC[C@@H]3C[C@@H](O)CC(=O)O3)[C@H]21` [lovastatin, reference compound] here?
Answer: strong decreases

same assay, conditions: 20 μM; composite Z-score vs DMSO

Question: For `Cc1cc(C2CCCCC2)n(O)c(=O)c1` [ciclopirox olamine], which ATP is on record?
Answer: −1.900

Question: How did the ATP turn out when `NS(=O)(=O)c1cc(C2(O)NC(=O)c3ccccc32)ccc1Cl` (centres unmarked) [chlorthalidone] was run?
Answer: 0.323

Question: With `Fc1ccc(C(c2ccccc2)(c2ccccc2F)n2ccnc2)cc1` (centres unmarked) [flutrimazole] as the compound, how does the ATP read?
Answer: 0.176

Question: For `Cc1onc(-c2ccccc2Cl)c1C(=O)N[C@@H]1C(=O)N2[C@@H]1SC(C)(C)[C@@H]2C(=O)O` [cloxacillin], which ATP is on record?
Answer: 0.231

Question: Which ATP does the source give for `CN(C)c1nc(N(C)C)nc(N(C)C)n1` [altretamine] here?
Answer: 0.427

same assay, conditions: Conc 11.72 μM; normalized score vs mock-treated (DMSO) wells

Question: How did the “ATP (composite Z-score)” value turn out when `COc1ccc2c(c1O)-c1c(OC)c(OC)cc3c1[C@H](C2)N(C)CC3` [isocorydine] was run?
Answer: −0.052

same assay, conditions: Conc 20 μM; normalized score vs mock-treated (DMSO) wells

Question: Which “ATP (composite Z-score)” value does the source give for `COc1ccc2c(c1O)-c1c(OC)c(OC)cc3c1[C@H](C2)N(C)CC3` [isocorydine] here?
Answer: 0.593

Question: `COc1ccc(/C=C/C(=O)O)cc1OC` [dimethylcaffeic acid] was tested. Which “ATP (composite Z-score)” value did it give?
Answer: 1.552

Question: With `CC(=O)O[C@@H]1CC2C(C)(C)[C@H](O)C=C[C@]2(C)C2CC[C@]3(C)C(=CC(=O)O[C@H]3c3ccoc3)[C@@]21C` (stereo partly drawn) [3-alpha-hydroxydeoxygedinin] as the compound, how does the “ATP (composite Z-score)” value read?
Answer: 0.418

Question: Which “ATP (composite Z-score)” value does the source give for `C=C1C2CC[C@@]3(C)[C@H](c4ccoc4)OC(=O)C[C@]13O[C@H]1C[C@H](OC(C)=O)C(C)(C)[C@H](CC(=O)OC)[C@@]21C` here?
Answer: 0.081

Question: For `C=CC(C)(O)CCC=C(C)C` (single isomer, unassigned; (+)) [(+)-linalool], which “ATP (composite Z-score)” value is on record?
Answer: −0.323

Question: With `CC(C)CCC[C@@H](C)[C@H]1CC[C@H]2[C@@H]3C[C@@H](O)[C@@]4(O)C[C@@H](O)CC[C@]4(C)[C@H]3CC[C@]12C` [cholestan-3beta,5alpha,6beta-triol] as the compound, how does the “ATP (composite Z-score)” value read?
Answer: 0.747

Question: For `O=C(Oc1cc(OC(=O)c2ccccc2)c2c(c1)O[C@H](c1ccc(OC(=O)c3ccccc3)c(OC(=O)c3ccccc3)c1)[C@@H](OC(=O)c1ccccc1)C2)c1ccccc1` [catechin pentabenzoate], which “ATP (composite Z-score)” value is on record?
Answer: 0.169

Question: `CC1CCC(C(C)C)C(OC(=O)c2ccccc2)C1` (centres unmarked) [menthyl benzoate] was tested. Which “ATP (composite Z-score)” value did it give?
Answer: 0.906

Question: How did the “ATP (composite Z-score)” value turn out when `CCC(C)C(OC(C)=O)C(=O)O[C@H]1[C@H](O)[C@@H]2[C@@]3(C)C=CC(=O)C(C)(C)[C@@H]3C[C@@H](OC(=O)C(O)C(C)C)[C@@]2(C)[C@@]23O[C@@H]2C[C@@H](c2ccoc2)[C@]13C` (some centres unmarked) [heudelottin C, reference compound] was run?
Answer: 0.840

Question: For `CC(=O)O[C@H]1CC[C@]2(C)C3=CC(=O)[C@]4(C)[C@@H]5[C@H](C[C@H]4[C@@H]3CC[C@H]2C1)O[C@@]1(OCC(C)CC1Br)[C@H]5C` (some centres unmarked), which “ATP (composite Z-score)” value is on record?
Answer: −0.670

Question: With `CC(=O)N[C@@H](CC(=O)O)C(=O)O` [N-acetylaspartic acid] as the compound, how does the “ATP (composite Z-score)” value read?
Answer: 0.521

same assay, conditions: Table 4; C2C12 myotubes, 48 h, composite Z-score

Question: `COc1cc2c(cc1OC)C1C(=O)c3c(cc4c(c3O)C=CC(C)(C)O4)OC1CO2` (stereo not drawn) [beta-toxicarol, reference compound] was tested. Which ATP did it give?
Answer: −2.000

Question: How did the ATP turn out when `CCC(C)C(OC(C)=O)C(=O)O[C@H]1[C@H](O)[C@@H]2[C@@]3(C)C=CC(=O)C(C)(C)[C@@H]3C[C@@H](OC(=O)C(O)C(C)C)[C@@]2(C)[C@@]23O[C@@H]2C[C@@H](c2ccoc2)[C@]13C` (some centres unmarked) [heudelottin C, reference compound] was run?
Answer: 0.840

same assay, conditions: assay control, FIG. 3 (4)

Question: With `CN[C@@H]1C[C@H]2O[C@@](C)([C@@H]1OC)n1c3ccccc3c3c4c(c5c6ccccc6n2c5c31)C(=O)NC4` [staurosporine, reference compound] as the compound, how does the ATP read?
Answer: reduced

same assay, conditions: composite Z-score vs DMSO wells; Conc 20 μM

Question: How did the ATP turn out when `C=C1c2cccc(O)c2C(=O)C2=C(O)[C@]3(O)C(=O)C(C(N)=O)=C(O)[C@@H](N(C)C)[C@@H]3[C@@H](O)[C@H]12` [methacycline, reference compound] was run?
Answer: −0.365

Question: Which ATP does the source give for `Cc1onc(-c2c(Cl)cccc2Cl)c1C(=O)N[C@@H]1C(=O)N2[C@@H]1SC(C)(C)[C@@H]2C(=O)O` [dicloxacillin sodium] here?
Answer: −0.299

Question: `CC(=O)N[C@@H](CC(C)C)C(=O)O` [acetyl-L-leucine] was tested. Which ATP did it give?
Answer: 0.771

Question: `Oc1c(Cl)cc(Cl)c2cccnc12` [chloroxine] was tested. Which ATP did it give?
Answer: −1.831

same assay, conditions: composite Z-score vs DMSO; Conc 8 μM

Question: With `CCCCN(CCCC)CCC(O)c1cc2c(Cl)cc(Cl)cc2c2cc(C(F)(F)F)ccc12` (centres unmarked) [halofantrine] as the compound, how does the ATP read?
Answer: −0.166

same assay, conditions: composite Z-score vs DMSO; Conc 9.58 μM

Question: With `COCCc1ccc(OCC(O)CNC(C)C)cc1` (centres unmarked) [metoprolol, reference compound] as the compound, how does the ATP read?
Answer: 0.449

same assay, conditions: composite Z-score vs DMSO; Conc 20 μM

Question: Which ATP does the source give for spiramycin here?
Answer: 0.288

Question: With `COc1cc([C@@H]2c3cc4c(cc3[C@H](O)[C@H]3COC(=O)[C@@H]23)OCO4)cc(OC)c1OC` [picropodophyllotoxin, reference compound] as the compound, how does the ATP read?
Answer: −0.952

Question: For `C[C@H](CCC(=O)O)[C@H]1CC[C@H]2[C@@H]3CC[C@@H]4CCCC[C@]4(C)[C@H]3CC[C@]12C` [ursocholanic acid], which ATP is on record?
Answer: 0.349

Question: `COCCc1ccc(OCC(O)CNC(C)C)cc1` (centres unmarked) [metoprolol, reference compound] was tested. Which ATP did it give?
Answer: 1.130

Question: With `C[C@]12CCC(=O)C=C1CC[C@@H]1[C@@H]2C(=O)C[C@@]2(C)[C@H]1CC[C@]2(O)C(=O)CO` [cortisone] as the compound, how does the ATP read?
Answer: 0.319

Question: How did the ATP turn out when `C#CCCCCCCCCCCCC(O)CC(O)CO` (centres unmarked) [avocadyne] was run?
Answer: −0.278

Question: For `C[C@H]1O[C@@H](n2cc(F)c(=O)[nH]c2=O)[C@H](O)[C@@H]1O` [5-fluoro-5′-deoxyuridine], which ATP is on record?
Answer: 0.603

Question: With `CC1(C)O[C@@H]2C[C@H]3[C@@H]4CCC5=CC(=O)CC[C@]5(C)[C@@]4(F)[C@@H](O)C[C@]3(C)[C@]2(C(=O)CCl)O1` [halcinonide] as the compound, how does the ATP read?
Answer: −0.401

Question: For `CC(C)=CCC[C@](C)(O)C1CC=C(C)CC1` (some centres unmarked) [bisabolol], which ATP is on record?
Answer: 0.982

Question: Which ATP does the source give for `O=C(O)c1cccc(O)c1O` [pyrocatechuic acid] here?
Answer: 1.015

Question: `COc1cc(-c2coc3cc(OCc4ccccc4)c(OC)c(O)c3c2=O)cc(OCc2ccccc2)c1OC` [irigenin, dibenzyl ether] was tested. Which ATP did it give?
Answer: 0.867

Question: For `COc1cc([C@@H]2c3cc4c(cc3[C@@H](O[C@@H]3O[C@@H]5CO[C@@H](C)O[C@H]5[C@H](O)[C@H]3O)[C@H]3COC(=O)[C@H]23)OCO4)cc(OC)c1O` [etoposide], which ATP is on record?
Answer: 0.749

same assay, conditions: composite Z-score vs mock-treated (DMSO) wells; Conc 20 μM

Question: With `CC(=O)O[C@H]1C[C@@H](OC(C)=O)C(C)(C)C2C[C@@H](O)[C@]3(C)C(CC[C@@]4(C)[C@H](c5ccoc5)OC(=O)[C@H]5O[C@]543)[C@]21C` (some centres unmarked) [7-deacetylkhivorin] as the compound, how does the ATP read?
Answer: 1.348

Question: `C=C(C)[C@H]1COc2cc3oc(=O)ccc3cc2O1` [obliquin] was tested. Which ATP did it give?
Answer: 1.040

Question: `COC(=O)C[C@H]1C(C)(C)C(=O)[C@@H]2CC3C4=CC(=O)O[C@@H](c5ccoc5)[C@]4(C)CC[C@@H]3[C@@]1(C)C2=O` (some centres unmarked) [carapin] was tested. Which ATP did it give?
Answer: 0.175

Question: With `C=C1C(=O)O[C@H]2C[C@@H]1C(OC(C)=O)C/C(C)=C/CC/C(C)=C/CC[C@@]2(C)O` (some centres unmarked) [crassin acetate] as the compound, how does the ATP read?
Answer: 0.769

Question: Which ATP does the source give for `CCN1CCN(C(=O)N[C@@H](C(=O)N[C@@H]2C(=O)N3C(C(=O)O)=C(CSc4nnnn4C)CS[C@H]23)c2ccc(O)cc2)C(=O)C1=O` [cefoperazone] here?
Answer: 0.164

Question: How did the ATP turn out when `CC(C)=CCOc1cc2oc(=O)ccc2cc1O` [prenyletin] was run?
Answer: 0.659

Question: `CC(=O)[C@H]1CC[C@H]2[C@@H]3CCC4C[C@H](O)CC[C@]4(C)[C@H]3C[C@H](O)[C@]12C` (stereo partly drawn) [dihydroxy (3alpha,12alpha)pregnan-20-one] was tested. Which ATP did it give?
Answer: −0.294

Question: How did the ATP turn out when `CC1=CC(=O)[C@H]2C(C)(C)CCC[C@]2(C)[C@@]1(O)CCc1ccoc1` [solidagenone] was run?
Answer: 0.314

Question: `C=C(C)c1cc2cc(C(C)=O)c(O)cc2o1` [euparin] was tested. Which ATP did it give?
Answer: −1.071

same assay, conditions: normalized composite Z-score vs mock-treated (DMSO) wells; Conc 20 μM

Question: Which ATP does the source give for `OC[C@H]1O[C@@](CO)(O[C@H]2O[C@H](CO)[C@@H](O)[C@H](O)[C@H]2O)[C@@H](O[C@H]2O[C@H](CO)[C@@H](O)[C@H](O)[C@H]2O)[C@@H]1O` [melezitose] here?
Answer: 0.268

Question: For `CC1OC(OC2C(O)COC(OC3C(C)OC(OC4C(OC(=O)C56CCC(C)(C)CC5C5=CCC7C8(C)CCC(OC9OC(CO)C(O)C(O)C9O)C(C)(C)C8CCC7(C)C5(C)CC6O)OCC(O)C4O)C(O)C3O)C2O)C(O)C(O)C1O` (centres unmarked) [chrysanthellin A], which ATP is on record?
Answer: −2.958

Question: With `C#CCCCCCCCCCCCC(O)CC(O)CO` (centres unmarked) [avocadyne] as the compound, how does the ATP read?
Answer: −0.151

Question: With `COc1cc2c(cc1OC)C1C(=O)c3c(cc4c(c3O)C=CC(C)(C)O4)OC1CO2` (stereo not drawn) [beta-toxicarol, reference compound] as the compound, how does the ATP read?
Answer: −2.000

Question: How did the ATP turn out when `CC(=O)O[C@@H]1CC2C(C)(C)C(=O)[C@@H]3O[C@@H]3[C@]2(C)C2CC[C@]3(C)C(=CC(=O)O[C@H]3c3ccoc3)[C@@]21C` (stereo partly drawn) [1 (2)alpha-epoxydeoxydihydrogedunin] was run?
Answer: 0.869

Question: With `C/C1=C\CC/C(C)=C/CC(C)(C)/C=C/C1` [humulene] as the compound, how does the ATP read?
Answer: 0.403

Question: `CC1=CC(=O)CC(C)(C)[C@@]1(O)/C=C/C(C)=C\C(=O)O` [abscisic acid] was tested. Which ATP did it give?
Answer: 0.509

Question: How did the ATP turn out when `CC(=O)C[C@H]1CCCCN1` [pelletierine] was run?
Answer: 1.086
